According to the antibiotic and cytotoxicity screens of Wong et al. (2023):
This is one part of the list.

Experiments:
HSkMC = human skeletal muscle cells; test: cytotoxicity call (relative viability < 0.9); details: 10 µM
HepG2 = test: cytotoxicity call (relative viability < 0.9); details: 10 µM
S. aureus RN4220 = test: growth inhibition call (relative growth <= 0.2); details: 50 µM

Row | Compound | cytotoxicity call (HSkMC) | cytotoxicity call (HepG2) | growth inhibition call (S. aureus RN4220)
1 | CCCNC(=O)N[C@@H]1CC[C@@H](CC(=O)N2CCN(C)CC2)O[C@H]1CO | inactive | inactive | inactive
2 | C=CCc1ccc(O)c(OC)c1 | inactive | inactive | active
3 | C[C@@H]1CN([C@H](C)CO)C(=O)c2c(c3ccccc3n2C)-c2ccccc2CO[C@@H]1CN(C)C(=O)Nc1ccc(F)cc1 | inactive | inactive | inactive
4 | C[C@@H]1CN([C@@H](C)CO)C(=O)c2cc(-c3cccc(C(=O)N(C)C)c3)cnc2O[C@H]1CN(C)S(=O)(=O)c1cccc(F)c1 | inactive | inactive | inactive
5 | CN(CCO)S(=O)(=O)c1cccc(C(=O)O)c1 | inactive | inactive | inactive
6 | C[C@H](CO)N1C[C@H](C)[C@H](CN(C)Cc2ccc3c(c2)OCO3)Oc2ccc(NC(=O)CCN3CCOCC3)cc2C1=O | inactive | inactive | inactive
7 | C[C@H](CO)N1C[C@H](C)[C@H](CN(C)S(C)(=O)=O)Oc2c(NS(=O)(=O)c3ccc(Cl)cc3)cccc2C1=O | inactive | inactive | inactive
8 | COC(=O)[C@H](Cc1ccccc1)N1CC2=C[C@@H](C3CC3)n3c(=O)n(C)c(=O)n3[C@H]2[C@@H]1[C@@H](O)CCn1cc(CCC(=O)NO)nn1 | inactive | inactive | inactive
9 | C[C@H]1CN([C@@H](C)CO)C(=O)c2cc(C#Cc3ccccn3)cnc2O[C@@H]1CN(C)C(=O)c1cnccn1 | inactive | inactive | inactive
10 | COc1ccc(CN(C)C[C@@H]2Oc3c(NC(=O)c4cc(C)nn4C)cccc3C(=O)N([C@H](C)CO)C[C@H]2C)cc1 | inactive | inactive | inactive
